From PubChem BioAssay AID624260 (Broad Institute, 2012)
Among all 44,000 compounds or so, about 30 (0.07%) were called active. The inconclusive results got no clear call from the source; some entries with a clear call stand among them for comparison. Rule as the data show it: active = inhibition above about 54% (passing the limit was not always enough); inconclusive = no clear call, values can overlap the other calls.

Each compound was assayed against Histone-lysine N-methyltransferase NSD2 (Homo sapiens) (UniProt O96028) (assay: NSD2 histone methyltransferase activity blockers – biochemical, plate reader, single point, primary screen (AID 624260;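 also: inhibitors reduce the monomethyl H3K36 fluorescence signal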)). Conditions: NSD2-SET H3K36me1 DELFIA fluorescence, at 12.5 µM, stronger effect = higher value.
UniProt O96028, sequence (O96028 whole entry, looked up): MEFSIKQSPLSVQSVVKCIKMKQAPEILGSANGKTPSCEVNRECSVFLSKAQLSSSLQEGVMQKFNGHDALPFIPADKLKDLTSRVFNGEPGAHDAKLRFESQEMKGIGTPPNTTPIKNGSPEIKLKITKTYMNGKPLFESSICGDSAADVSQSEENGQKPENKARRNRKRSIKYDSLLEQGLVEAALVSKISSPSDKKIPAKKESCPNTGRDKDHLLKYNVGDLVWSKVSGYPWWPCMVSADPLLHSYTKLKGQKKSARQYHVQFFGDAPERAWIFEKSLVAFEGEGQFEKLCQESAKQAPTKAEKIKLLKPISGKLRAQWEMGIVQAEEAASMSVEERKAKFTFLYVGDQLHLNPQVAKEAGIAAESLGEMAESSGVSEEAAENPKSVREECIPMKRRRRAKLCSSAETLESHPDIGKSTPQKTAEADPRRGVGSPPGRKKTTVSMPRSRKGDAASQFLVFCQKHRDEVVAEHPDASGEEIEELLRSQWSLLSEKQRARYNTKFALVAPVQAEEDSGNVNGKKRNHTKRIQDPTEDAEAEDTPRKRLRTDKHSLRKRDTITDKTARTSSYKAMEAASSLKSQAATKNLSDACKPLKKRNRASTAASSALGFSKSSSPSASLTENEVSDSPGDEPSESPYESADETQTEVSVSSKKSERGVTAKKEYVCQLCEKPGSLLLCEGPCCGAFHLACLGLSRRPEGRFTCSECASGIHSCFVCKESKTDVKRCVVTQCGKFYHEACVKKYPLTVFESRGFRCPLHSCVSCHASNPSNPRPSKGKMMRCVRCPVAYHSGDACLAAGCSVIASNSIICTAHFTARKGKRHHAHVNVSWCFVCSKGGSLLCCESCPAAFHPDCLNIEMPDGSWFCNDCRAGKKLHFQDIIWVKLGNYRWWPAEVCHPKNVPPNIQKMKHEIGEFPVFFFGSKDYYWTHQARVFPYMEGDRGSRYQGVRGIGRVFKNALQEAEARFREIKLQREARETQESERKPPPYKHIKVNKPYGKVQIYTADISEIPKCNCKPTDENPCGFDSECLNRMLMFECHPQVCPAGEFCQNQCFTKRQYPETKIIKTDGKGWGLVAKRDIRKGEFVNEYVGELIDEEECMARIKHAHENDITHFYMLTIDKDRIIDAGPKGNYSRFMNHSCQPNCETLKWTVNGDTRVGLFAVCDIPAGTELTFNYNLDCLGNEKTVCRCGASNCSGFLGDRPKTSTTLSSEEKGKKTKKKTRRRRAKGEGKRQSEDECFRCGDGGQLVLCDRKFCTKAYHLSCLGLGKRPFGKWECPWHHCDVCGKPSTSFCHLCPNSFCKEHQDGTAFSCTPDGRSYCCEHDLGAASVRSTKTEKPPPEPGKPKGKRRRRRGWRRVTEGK

Row | Structure (SMILES) | inhibition
1 | O=C(NO)c1cccc(C(=O)N/N=C/c2cc3ccccc3n2S(=O)(=O)c2ccccc2)c1 | inconclusive: 52.7%
2 | CCCC#Cc1ccc2c(c1)O[C@H](CN(C)C(=O)NCCC)[C@@H](C)CN([C@@H](C)CO)S2(=O)=O | inconclusive: 106%
3 | C[C@@H]1CN([C@H](C)CO)S(=O)(=O)c2ccc(-c3ccccc3)cc2O[C@H]1CN(C)C(=O)Nc1ccccc1F | inconclusive: 107%
4 | Cc1noc(C)c1NC(=O)Nc1ccc2c(c1)CC(=O)N([C@H](C)CO)C[C@@H](C)[C@@H](CN(C)C(=O)Nc1cccc3ccccc13)O2 | inactive: 0.964%
5 | C[C@@H]1CCCCO[C@@H](CN(C)C)[C@@H](C)CN([C@@H](C)CO)C(=O)c2cc(NS(=O)(=O)c3cn(C)cn3)ccc2O1 | inactive: -2.97%
6 | C[C@@H]1CN([C@@H](C)CO)S(=O)(=O)c2ccc(-c3ccccc3F)cc2O[C@@H]1CN(C)Cc1ccncc1 | inconclusive: 156%
7 | C[C@H]1CN([C@@H](C)CO)C(=O)c2cccc(NC(=O)Nc3ccc(C(F)(F)F)cc3)c2O[C@H]1CN(C)C(=O)Nc1ccc(F)cc1 | inconclusive: 110%
8 | C[C@H](CO)N1C[C@H](C)[C@@H](CN(C)Cc2ccccc2)Oc2c(NS(C)(=O)=O)cccc2C1=O | inconclusive: 175%
9 | C[C@H]1CCCCO[C@@H](CN(C)C(=O)Nc2ccccc2)[C@@H](C)CN([C@@H](C)CO)C(=O)c2cc(NS(C)(=O)=O)ccc2O1 | inconclusive: 113%
10 | COC(=O)CCCCCCC(=O)N/N=C/c1ccc([N+](=O)[O-])s1 | inactive: 2.54%
11 | CCC(Sc1nnc2sc3ccccc3n12)C(=O)O (stereo not drawn) | inactive: 0.318%
12 | C/C=C/c1ccc2c(c1)O[C@H](CN(C)C(=O)c1ccccc1F)[C@@H](C)CN([C@H](C)CO)S2(=O)=O | inconclusive: 63.1%
13 | O=C1/C(=C/c2cn[nH]c2-c2ccc(F)cc2)CS/C1=C\c1cn[nH]c1-c1ccc(F)cc1 | inactive: -8.71%
14 | C[C@@H]1CN([C@@H](C)CO)C(=O)Cc2cc(NC(=O)Nc3ccccc3)ccc2O[C@H]1CN(C)Cc1ccncc1 | inconclusive: 109%
15 | CN(C)CC(=O)Nc1ccc2c(c1)[C@@H]1C[C@@H](CC(=O)NCc3ccc(Cl)cc3)O[C@@H](CO)[C@@H]1O2 | inconclusive: 175%
16 | O=C(CCc1ccc(O)cc1)CC(CCc1ccc(O)cc1)O[C@@H]1OC[C@@H](O)[C@H](O)[C@H]1O (stereo partly drawn) | inactive: 6.41%
17 | C[C@H](CO)N1C[C@H](C)[C@@H](CN(C)C)OCCCC[C@H](C)Oc2ccc(NC(=O)CCC(F)(F)F)cc2C1=O | inconclusive: 88.4%
18 | CC(=O)N(C)C[C@@H]1Oc2ncc(C#Cc3ccccc3F)cc2C(=O)N([C@H](C)CO)C[C@H]1C | inconclusive: 111%
19 | C[C@@H]1CCCCO[C@@H](CN(C)C(=O)CCC(F)(F)F)[C@H](C)CN([C@H](C)CO)C(=O)c2cc(NS(=O)(=O)c3cccs3)ccc2O1 | inconclusive: 186%
20 | C[C@@H]1CN([C@H](C)CO)C(=O)c2cccc(NC(=O)C3CCOCC3)c2O[C@@H]1CN(C)C(=O)Nc1ccccc1 | inactive: -0.231%
21 | C[C@H](CO)N1C[C@H](C)[C@@H](CN(C)C(=O)NC2CCCCC2)Oc2ccc(NC(=O)Cc3cn(C)c4ccccc34)cc2C1=O | inconclusive: 136%

Row | Structure (SMILES) | inhibition
22 | O=C(O)C1CC=CCC1C(=O)Nc1ccc(Cc2ccncc2)cc1 (stereo not drawn) | inactive: 1.3%
23 | C[C@H]1CN([C@@H](C)CO)C(=O)c2cc(C#CC(C)(C)O)cnc2O[C@@H]1CN(C)Cc1cncnc1 | inconclusive: 72.2%
24 | Cc1nc(-c2c(C(=O)NN)noc2C)cs1 | inactive: -1.82%
25 | C[C@H](CO)N1C[C@H](C)[C@@H](CN(C)C(=O)CCC(F)(F)F)OCCCC[C@H](C)Oc2ccc(NC(=O)CCC(F)(F)F)cc2C1=O | inconclusive: 162%
26 | CCCN(C)C[C@H]1Oc2cc(-c3cccc(C#N)c3)ccc2S(=O)(=O)N([C@H](C)CO)C[C@H]1C | inactive: 1.45%
27 | COC(=O)CCCCCCC(=O)N/N=C/c1cccc(Oc2ccccc2)c1 | inactive: 15.4%
28 | O=c1c(O[C@@H]2O[C@H](CO)[C@@H](O)[C@H](O)[C@H]2O)c(-c2ccc(O)cc2)oc2cc(O)cc(O)c12 | inactive: -7.71%
29 | C[C@H]1CN([C@@H](C)CO)S(=O)(=O)c2ccc(-c3ccncc3)cc2O[C@@H]1CN(C)C(=O)c1ccc2c(c1)OCO2 | inactive: -3.03%
30 | C=CCNC(=O)CSc1nnc(-c2ccc3nonc3c2)n1C | inactive: 6.29%
31 | C[C@H](CO)N1C[C@H](C)[C@@H](CN(C)C(=O)Nc2cccc3ccccc23)Oc2c(NS(=O)(=O)c3ccc(Cl)cc3)cccc2C1=O | inconclusive: 112%
32 | C[C@@H]1CN([C@@H](C)CO)C(=O)c2cc(C#Cc3ccc(F)cc3)cnc2O[C@H]1CN(C)C(=O)c1ccccc1F | inactive: 6.93%
33 | Cc1noc(C)c1S(=O)(=O)Nc1ccc2c(c1)C(=O)N([C@@H](C)CO)C[C@H](C)[C@H](CN(C)C(=O)Nc1ccccc1)O2 | inconclusive: 68.7%
34 | CCN(C(=O)C(C)Oc1ccccc1)c1ccccc1C (stereo not drawn) | inactive: -3.91%
35 | C[C@H]1CN([C@@H](C)CO)C(=O)c2cc(C#CCN(C)C)cnc2O[C@H]1CN(C)C(=O)c1cnccn1 | inconclusive: 170%
36 | CCCC#Cc1cnc2c(c1)C(=O)N([C@@H](C)CO)C[C@H](C)[C@@H](CN(C)Cc1ccccc1)O2 | inconclusive: 163%
37 | Cc1cc(N2CCCC2)ccc1/C=C(/C#N)c1ccc(F)cc1 | inactive: -17.3%
38 | O=C(Nc1cc(F)ccc1F)N[C@@H]1C=C[C@@H](CC(=O)N2CCc3ccccc3C2)O[C@H]1CO | inactive: -0.699%
39 | CC1(C)CC[C@]2(C(=O)O[C@@H]3O[C@H](CO)[C@@H](O)[C@H](O)[C@H]3O)CC[C@]3(C)C(=CCC4[C@@]5(C)C[C@@H](O)[C@H](O)[C@@](C)(CO)C5[C@H](O)C[C@]43C)C2[C@@H]1O (stereo partly drawn) | active: 62.4%
40 | COc1ccc(-c2nn(CCC(=O)O)c3nc(C)cc(C)c23)c(OC)c1 | inactive: -2.84%
41 | CS(=O)(=O)Nc1ccc2oc3ncccc3c(=O)c2c1 | inactive: 2.8%
42 | CC(=O)O[C@@H]1CC2C(C)(C)C(=O)C3OC3[C@]2(C)C2CC[C@@]3(C)[C@H](c4ccoc4)OC(=O)C4OC43[C@@]21C (stereo partly drawn) | inactive: -2.08%

Row | Structure (SMILES) | inhibition
43 | CC(C)CC(=O)c1c(O)cc(O)cc1OC1OC(COC(=O)c2cc(O)c(O)c(O)c2)C(O)C(O)C1O (stereo not drawn) | active: 52.2%
44 | CNC[C@@H]1Oc2ccc(NC(=O)Nc3ccccc3)cc2CC(=O)N([C@H](C)CO)C[C@@H]1C | inconclusive: 142%
45 | CC(=O)N(C)C[C@H]1Oc2cc(C#CC(C)C)ccc2S(=O)(=O)N([C@@H](C)CO)C[C@@H]1C | inconclusive: 124%
46 | COc1cccc(NC(=O)N(C)C[C@H]2Oc3cc(C#Cc4ccccc4)ccc3S(=O)(=O)N([C@@H](C)CO)C[C@H]2C)c1 | inconclusive: 55.2%
47 | C[C@@H]1CN([C@H](C)CO)C(=O)c2cc(C3=CCCCC3)cnc2O[C@@H]1CN(C)C(=O)c1ccncc1 | inactive: 0.141%
48 | CC(C)CC#Cc1ccc2c(c1)O[C@@H](CN(C)C(=O)CN(C)C)[C@H](C)CN([C@@H](C)CO)S2(=O)=O | inactive: -6.8%
49 | C[C@@H]1CCCCO[C@@H](CN(C)C(=O)CCC(F)(F)F)[C@H](C)CN([C@@H](C)CO)C(=O)c2cc(NC(=O)c3ccncc3)ccc2O1 | inconclusive: 91.4%
50 | C[C@H]1CN([C@@H](C)CO)S(=O)(=O)c2ccc(Br)cc2O[C@H]1CN(C)C(=O)c1cnccn1 | inactive: -5.84%
51 | C[C@@H]1CCCCO[C@@H](CN(C)C(=O)c2ccccc2)[C@@H](C)CN([C@H](C)CO)C(=O)c2cc(NS(=O)(=O)c3ccccc3)ccc2O1 | inconclusive: 96.6%
52 | COc1cc(C(=O)OCC2(O)COC(OCC3OC(Oc4c(OC)cc(CO)cc4OC)C(O)C(O)C3O)C2O)cc(OC)c1O (stereo not drawn) | inactive: 20.3%
53 | O=c1c(O[C@@H]2OC[C@H](O)[C@H](O)[C@H]2O)c(-c2ccc(O)cc2)oc2cc(O)cc(O)c12 | active: 72%
54 | CCOC(=O)c1c(C)sc2c(C)c(C)[nH]c12 | inactive: 8.08%
55 | Cc1noc(C)c1NC(=O)Nc1cccc2c1O[C@H](CN(C)C(=O)Nc1ccc3c(c1)OCO3)[C@H](C)CN([C@@H](C)CO)C2=O | inactive: -2.74%
56 | COc1ccccc1-c1cc(=O)c2ccccc2o1 | inactive: -0.459%
57 | Cc1noc(C)c1NC(=O)Nc1ccc2c(c1)C(=O)N([C@@H](C)CO)C[C@@H](C)[C@H](CN(C)S(=O)(=O)c1cccs1)O2 | inactive: 1.48%
58 | COc1ccc(S(=O)(=O)N(C)C[C@@H]2Oc3cc(C4=CCCC4)ccc3S(=O)(=O)N([C@@H](C)CO)C[C@H]2C)cc1 | inconclusive: 121%
59 | C[C@@H]1CCCCO[C@H](CN(C)C)[C@@H](C)CN([C@H](C)CO)C(=O)c2cc(NC(=O)Cc3ccccc3)ccc2O1 | inconclusive: 126%
60 | C[C@@H]1CN([C@H](C)CO)C(=O)c2cc(NS(=O)(=O)c3cn(C)cn3)ccc2O[C@@H]1CN(C)C(=O)Nc1ccc2c(c1)OCO2 | inconclusive: 103%
61 | O=C(NO)c1ccc(C(=O)N/N=C/c2c(O)cc(O)cc2O)cc1 | inconclusive: 57%
62 | CC(C)NC(=O)Nc1cccc2c1O[C@@H](CN(C)Cc1ccccc1)[C@H](C)CN([C@@H](C)CO)C2=O | inconclusive: 192%
63 | CCCc1nc(SCC(=O)c2ccccc2Cl)[nH]c(=O)c1C | inactive: -0.607%
